According to PubChem BioAssay AID686978 (National Center for Advancing Translational Sciences (NCATS), 2013):
The campaign covered roughly 420,000 compounds. About 64,000 (15%) were called active. This list was built around the results that the source calls inconclusive (neither active nor inactive); the mix of calls is not that of the screen. Calls come from the whole dose curve; as a rule, active = well fitted inhibition curve with a large enough effect; inconclusive = small, poorly fitted or top-dose-only effect; inactive = flat fitted curve, though single readings scatter. No potency is given beside an inconclusive call; the fits are too rough.

Assay: qHTS for Inhibitors of human tyrosyl-DNA phosphodiesterase 1 (TDP1): qHTS in cells in absence of CPT; note: nearly all actives have a fitted effect of over 55% in size
Settings: DT40 Tdp1-/- hTDP1 cells, no CPT, ATP luminescence, 48 h; activity change, negative = growth inhibition: at 46.2 µM (top of the series)
How it was run: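 Readout: luminescence from CellTiter-Glo after 30 min in the dark at RT. Cells: DT40 Tdp1-/- with stable hTDP1, 400/well. Exposure: compounds alone, ≥48 hr, 37 °C.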
% is set by controls: 0 for no effect and ±100 for the full control effect; potency is the fitted concentration of half-maximal effect; tags give direction and shape of the fitted curve.

| SMILES | Potency | activity change, negative = growth inhibition |
| --- | --- | --- |
| Cc1nc2cc(N3CCN(C)CC3)c(NC(=O)Cc3ccccc3)cc2c(=O)n1Cc1ccccc1 | inconclusive [inhibitor, partial curve] | – |
| Cc1ccccc1S(=O)(=O)N1C[C@H]2CON(C)[C@H]2C[C@H]1c1cccc(-c2ccccc2)c1 | active: 23.1 µM | – |
| O=C(C1CCN(S(=O)(=O)N2CCOCC2)CC1)N1CCN(Cc2ccccc2)CC1 | – | inactive: 1.78% |
| CC(C)(C(=O)NO)c1ccccc1 | inconclusive [inhibitor, single point] | – |
| COc1ccccc1CNC(=O)CCNC(=O)N1CC(=O)Nc2ccccc21 | – | inactive: 16% |
| O=C(NN=C(Cc1ccccc1)Cc1ccccc1)c1ccccc1F | – | inactive: -3.49% |
| CNCCOc1ccc(Cl)c(Cl)c1 | active: 16.4 µM | – |
| Cc1cccc([C@H](NC(=O)OC(C)(C)C)C(=O)OC(C)(C)C)c1 | inconclusive [inhibitor, single point] | – |
| COC(=O)c1ccccc1NC(=O)Cn1cnc2c(cnn2-c2ccccc2)c1=O | – | inactive: -15.2% |
| COc1ccc(C=C2CCC3C(=O)CCCC3(C)C2=O)cc1 (stereo not drawn) | inconclusive [inhibitor, single point] | – |
| COCC(C)NC(=O)c1cnn2c(C(F)F)cc(-c3ccccc3)nc12 (stereo not drawn) | inconclusive [inhibitor, partial curve] | – |
| O=C(O)COc1ccccc1/C=N/NC(=O)c1ccc2c(c1)OCCO2 | – | inactive: 8.26% |
| Cc1ccc(NC(=O)C2CC(=O)n3c(nc4ccccc43)N2)cc1 (stereo not drawn) | – | inconclusive: -35% [inhibitor] |
| Cc1sc2ncnc(N3CCN(S(=O)(=O)c4ccccc4)CC3)c2c1C | active: 6.51 µM | – |
| COc1cc(-c2nnc(SCC(=O)N(Cc3ccccc3)C(C)(C)C)o2)cc(OC)c1OC | active: 14.6 µM | – |
| Cc1ccc(OCC(=O)c2c[nH]c3ccccc23)c([N+](=O)[O-])n1 | – | inactive: 3.98% |
| CC[C@@]1(C(=O)OC)N[C@H](CN(C)C(=O)Nc2ccc(C)cc2)[C@@H]2C(=O)N(Cc3ccccc3)C(=O)[C@@H]21 | inconclusive [inhibitor, partial curve] | – |
| CC(=O)c1ccc(NC(=O)c2cc(-c3ccc4c(c3)OCO4)on2)cc1 | – | inactive: -0.0213% |
| Cc1ccc(C2(c3noc(CN(C)CC4COCCO4)n3)CCCC2)cc1 (stereo not drawn) | inconclusive [inhibitor, single point] | – |
| C=CCN1CC(O)=C(c2nc3ccccc3[nH]2)C1=N | – | inactive: 0.197% |
| COc1cc(COC(=O)Oc2ccc(CNC(C)=O)cc2OC)c([N+](=O)[O-])cc1OC | – | inactive: -5.4% |
| Cc1ccc(C(=O)Nc2ccccc2C(=O)O)cc1S(=O)(=O)N1CCCCCC1 | inconclusive [inhibitor, single point] | – |
| COc1ccc(NS(=O)(=O)c2ccc3nc(COc4ccc(C#N)cc4)[nH]c3c2)cc1 | inconclusive [inhibitor, partial curve] | – |
| CCCCCOc1ccc(NC(=O)Cc2csc(C)n2)cc1 | inconclusive [inhibitor, single point] | – |
| O=C(C[n+]1cc(-c2ccccc2)n2c1CCC2)OCc1ccccc1 | – | inactive: -18.7% |

| SMILES | Potency | activity change, negative = growth inhibition |
| --- | --- | --- |
| FC(F)(F)c1ccnc(NCc2ccco2)n1 | – | inactive: 11.9% |
| COc1ccc(S(=O)(=O)N2CCN(CC(=O)N3CCNC3=O)CC2)cc1OC | – | inactive: -5.83% |
| COCCNC(=O)CN(Cc1ccc(F)cc1)C(=O)CCC(=O)Nc1nccs1 | – | inactive: -3.53% |
| Cc1nnc(SCc2ccccc2Cl)c2cc3sccc3n12 | inconclusive [inhibitor, single point] | – |
| O=C(COc1cccc(NC(=O)c2cccc([N+](=O)[O-])c2)c1)c1ccc(F)cc1 | active: 13 µM | – |
| Cc1ccc(CN2COc3cc(C)c4c(oc(=O)c5ccccc54)c3C2)cc1 | – | inactive: -25.3% |
| COc1ccccc1N1CCN(S(=O)(=O)CCNC(=O)C(C)Oc2ccccc2)CC1 (stereo not drawn) | inconclusive [inhibitor, single point] | – |
| Cc1c(C(=O)N2CCN(S(=O)(=O)c3ccccc3F)CC2)oc2c(Cl)cccc12 | inconclusive [inhibitor, single point] | – |
| O=S(=O)(c1ccc(N2CCN(S(=O)(=O)c3ccc4c(c3)OCCO4)CC2)nc1)N1CCCC1 | inconclusive [inhibitor, partial curve] | – |
| CCOC(=O)CN(c1sc(C)c(C)c1C(=O)OCC)S(=O)(=O)c1ccc(C)cc1 | active: 14.6 µM | – |
| Cn1c(C(=O)N2CCCC(C(=O)NCc3ccc4c(c3)OCO4)C2)cc2sccc21 (stereo not drawn) | active: 23.1 µM | – |
| CN(C)S(=O)(=O)c1ccc(Cl)c(C(=O)NNC(=O)c2ccc3c(c2)OCO3)c1 | inconclusive [inhibitor, single point] | – |
| CCn1c(=O)c2c3c(sc2n2c(SCc4ccc(F)cc4)nnc12)CCCC3 | – | inactive: -26.6% |
| CN(C)Cc1c(O)c(Cl)cc2c3c(c(=O)oc12)CCCC3 | active: 14.6 µM | – |
| CCn1c(SCC(=O)Nc2ccc(Br)cc2)nc2sc3c(c2c1=O)CCN(C)C3 | – | inactive: -1.28% |
| COc1ccc(/C=N/n2c(-c3ccc(C)cc3)n[nH]c2=S)cc1OC | inconclusive [inhibitor, single point] | – |
| COc1cc(OC)c(NC(=O)C(NS(=O)(=O)c2cccc3nsnc23)c2ccccc2)cc1Cl (stereo not drawn) | inconclusive [inhibitor, partial curve, poor fit] | – |
| COc1cc(/C=N/Nc2ncnc3sc4c(c23)CCC4)ccc1O | inconclusive [inhibitor, single point] | – |
| Cc1ccc(S(=O)(=O)N2C[C@@H]3CCCC[C@@H]3[C@@H](C)[C@H]2CC(=O)c2ccccc2)cc1 | active: 13 µM | – |
| O=c1[nH]c(C2CCN(S(=O)(=O)c3ccc(S(=O)(=O)NC4CC4)cc3)CC2)nc2c1nnn2Cc1ccccc1 | – | inactive: -17.8% |
| CCC(C)c1ccc(OCCCCN2CCOCC2)cc1 (stereo not drawn) | – | inactive: -27.9% |
| CN(C)c1ccc(C(=S)N2CCN(S(=O)(=O)c3ccccc3)CC2)cc1 | inconclusive [inhibitor, single point] | – |
| NNC(=O)c1[nH]c(-c2ccccc2)cc1-c1ccccc1 | inconclusive [inhibitor, single point] | – |
| Cc1ccc2nc(NC(=O)CN(C)S(=O)(=O)c3ccc(Br)s3)sc2c1 | inconclusive [inhibitor, partial curve, poor fit] | – |
| CSc1ncccc1C(=O)NC1CC(C)(C)Cc2c1cnn2-c1ccccc1C (stereo not drawn) | inconclusive [inhibitor, single point] | – |

| SMILES | Potency | activity change, negative = growth inhibition |
| --- | --- | --- |
| O=C(/C=C/c1cccnc1)c1ccc(NC(=O)c2cccc(Br)c2)cc1 | active: 3.16 µM | – |
| O=C(O)/C=C/c1cn(Cc2ccccc2)nc1-c1cccnc1 | inconclusive [inhibitor, single point] | – |
| C/C(Cl)=C\Cn1c(=O)c2c(nc3n2CCS3)n(C)c1=O | – | inactive: -10% |
| O=C(O)c1ccccc1C(=O)OCc1c(-c2ccccc2)ncc2ccccc12 | – | inactive: -12.7% |
| O=C(Nc1ccc(Cl)c(S(=O)(=O)N2CCOCC2)c1)C1CCCC1 | inconclusive [inhibitor, single point] | – |
| CCOc1ccc(NC(=O)c2cnn(-c3ccc(C)c(Cl)c3)c2C2CCNCC2)cc1 | inconclusive [inhibitor, single point] | – |
| O=C(CSc1nnc(Cc2ccccc2)n1-c1ccccc1)N1CCOCC1 | – | inactive: -0.859% |
| COC(=O)c1ccc(C(=O)OC)c(NC(=O)CSc2ccccn2)c1 | inconclusive [inhibitor, partial curve, poor fit] | – |
| Nc1ccc(C(=O)N2CCN(S(=O)(=O)c3ccc(Cl)s3)CC2)cc1[N+](=O)[O-] | – | inactive: -38.3% |
| Oc1ccc(-c2cn3cc(C(F)(F)F)ccc3n2)cc1 | inconclusive [inhibitor, partial curve] | – |
| CNC(=S)N(Cc1ccc(OC)cc1)Cc1cc2ccc(C)cc2[nH]c1=O | inconclusive [inhibitor, single point] | – |
| Cc1ccc2[nH]c(C(=O)Nc3ccccc3)cc2c1 | inconclusive [inhibitor, single point] | – |
| O=C(CN1CCN(c2ccccn2)CC1)Nc1cc(C(F)(F)F)ccc1Cl | active: 18.4 µM | – |
| Cc1ccc([N+](=O)[O-])cc1N=C(c1cccc([N+](=O)[O-])c1)N1CCOCC1 | inconclusive [inhibitor, partial curve] | – |
| CCN(CC)S(=O)(=O)c1ccc(N2CCOCC2)c(NC(=O)CCOc2ccccc2)c1 | active: 14.6 µM | – |
| CCN(CC)c1cc(C(F)(F)F)nc(-c2ccccn2)n1 | inconclusive [inhibitor, single point] | – |
| COc1ccc(-c2cn[nH]c2-c2ccc(OCc3ccc([N+](=O)[O-])cc3)cc2O)cc1OC | active: 20.6 µM | – |
| COc1ccc(-c2[nH]c(-c3ccccc3)nc2SCC(=O)Nc2ccc3c(c2)OCCO3)cc1 | active: 16.4 µM | – |
| CCn1c2ccc(C)cc2c2nc3cc(C(=O)O)ccc3nc21 | inconclusive [inhibitor, single point] | – |
| O=C(c1ccc(-c2nnc(Nc3cccc(Cl)c3)c3ccccc23)cc1)N1C[C@H]2C[C@H](C1)c1cccc(=O)n1C2 | active: 16.4 µM | – |
| COc1ccc(S(=O)(=O)n2nc(C)c(S(=O)(=O)N3CCOCC3)c2C)cc1 | – | inactive: 18.8% |
| COc1cc2cc(C(c3nnnn3C(C)(C)C)N3CCc4ccccc4C3)c(=O)[nH]c2cc1OC (stereo not drawn) | inconclusive [inhibitor, single point] | – |
| Cc1cccc(C)c1NC(=O)CNCC(=O)Nc1c(C)cccc1C | – | inactive: -9.59% |
